Measurements reported in paper PMC7819943, “Rice protein-binding microarrays: a tool to detect cis-acting elements near promoter regions in rice”.
The list shows a part of the results.

These sequences were tested against T1, OsWOX13 (Oryza sativa, UniProt Q5QMM3 1-267) (assay: protein-binding microarray (RPBM); PBS, 2% BSA, 51.3 ng/ul salmon testes DNA, 50 uM zinc acetate, 200 nM TF, 25 C, 1 h; high values mean tight binding). Conditions: protein: recombinant; tags: N-terminal polyhistidine and DsRed monomer fusion (pET32a); label: CyDye5-dUTP incorporated in the synthesized complementary strand; 3' TTTTT single-stranded linker to array surface; dsDNA, one strand shown.
T1 sequence: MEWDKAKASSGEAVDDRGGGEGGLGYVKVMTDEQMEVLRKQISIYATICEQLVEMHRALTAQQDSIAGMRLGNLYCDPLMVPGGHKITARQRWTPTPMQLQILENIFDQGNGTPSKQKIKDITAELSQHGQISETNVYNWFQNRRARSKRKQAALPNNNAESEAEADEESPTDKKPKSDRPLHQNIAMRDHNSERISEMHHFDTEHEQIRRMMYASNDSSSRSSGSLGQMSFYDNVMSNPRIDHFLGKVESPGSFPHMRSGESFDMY
In short: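 Ni–NTA purification followed expression in E. coli BL21-CodonPlus of transcription factors fused N-terminally to a polyhistidine tag and DsRed. At 200 nM in PBS with 2% BSA, salmon testes DNA and 50 µM zinc acetate, the protein was incubated for 1 h at 25 °C with a custom Agilent array that had been primer-extended with Cy5-dUTP and blocked with 2% BSA. After washing, the array was read on an Axon 4000B scanner. The binding signal is per-feature fluorescence intensity in arbitrary units.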
In the case of “AAAATAAGATGATTGAAAGAAAACATGTATAACATAAACACGGAGTCACCTAGTGCAG”, the binding signal is reported as 14300 fluorescence intensity (a.u.). In the case of “AGAGTTGATAGACGCAAACAAACCAGATAGCTAGCCACCCCGGAGTCACCTAGTGCAG”, the binding signal is reported as 24700 fluorescence intensity (a.u.). For “AGTTACCAAATAACTGATTATAGTTATTTGGAGAAGGTTACGGAGTCACCTAGTGCAG”, the binding signal was 8300 fluorescence intensity (a.u.). For “ATACCTTATTGAAATATGATTGTTCGACTGGTTACTGAATCGGAGTCACCTAGTGCAG”, the binding signal was 19500 fluorescence intensity (a.u.). “TTAAATGACTTTCTTTAGGGATTTCTACATAGGATTTGATCGGAGTCACCTAGTGCAG” was tested, and the binding signal was 3180 fluorescence intensity (a.u.). In the case of “AATGCACATGGGGATTGATTGAACTGAAGACGCCATTGATCGGAGTCACCTAGTGCAG”, the binding signal is reported as 37900 fluorescence intensity (a.u.). For “TTCTGATTAGTTACAACTTGAGTTCACTATTGTCATGATACGGAGTCACCTAGTGCAG”, the binding signal was 37200 fluorescence intensity (a.u.). In the case of “GGATTGTAATTTATCATTGGAGCTAATGATGTGGTGTCTTCGGAGTCACCTAGTGCAG”, the binding signal is reported as 12000 fluorescence intensity (a.u.). For “ATTAGGATAATGATAAATTACGATAATACTCCTACATGAACGGAGTCACCTAGTGCAG”, the binding signal was 5920 fluorescence intensity (a.u.). “CGCAAATCAAATTATGCATATATAGCTTGCTTGGACTTTACGGAGTCACCTAGTGCAG” was tested, and the binding signal was 6520 fluorescence intensity (a.u.). “TCCATGTGATTTTGTTGAATTGTTGGGCCAAGTAAATCTGCGGAGTCACCTAGTGCAG” was tested, and the binding signal was 13600 fluorescence intensity (a.u.). In the case of “TTTAAATGGAAAATTTAGGCGTTGTTAAAGATTTGAGCGACGGAGTCACCTAGTGCAG”, the binding signal is reported as 14800 fluorescence intensity (a.u.). With “CCACGGGTAAACGGGCAAATTGGCATAATTGCCATCCCTACGGAGTCACCTAGTGCAG” the binding signal was 8320 fluorescence intensity (a.u.). In the case of “TTAAAATTTTATTATTTATAATATGAATATTAATAGAGTACGGAGTCACCTAGTGCAG”, the binding signal is reported as 5690 fluorescence intensity (a.u.). In the case of “ATATTTTGATTTATAATAGGCGGGGAAATAGCTATCTCAACGGAGTCACCTAGTGCAG”, the binding signal is reported as 14800 fluorescence intensity (a.u.). With “GTCATTGATTATTTGTTGTAGCACCTTAAATATTGGTTTTCGGAGTCACCTAGTGCAG” the binding signal was 16400 fluorescence intensity (a.u.). In the case of “ATGTTCTTCAGTTACCGCAAATTTGCATCAACAAATTTGCCGGAGTCACCTAGTGCAG”, the binding signal is reported as 6500 fluorescence intensity (a.u.). “GTTGGAGAGAGTGATTGGGAATTTAGAGGGATGAGGTTATCGGAGTCACCTAGTGCAG” was tested, and the binding signal was 10300 fluorescence intensity (a.u.). For “GTTTGACAAAATCACATAATGTTAGACAACGTGCGTAGCCCGGAGTCACCTAGTGCAG”, the binding signal was 12900 fluorescence intensity (a.u.). In the case of “ATAAATAATTTAAAATTTCACCAAAATTCTAAGAAATTATCGGAGTCACCTAGTGCAG”, the binding signal is reported as 6160 fluorescence intensity (a.u.). With “TATATTAATTATCACCTATTGGGCTTTTAAATTTGGTTTACGGAGTCACCTAGTGCAG” the binding signal was 16600 fluorescence intensity (a.u.). “GAGAAATTTCAATCGTGCAATCTTACTCTATCGTGATATACGGAGTCACCTAGTGCAG” was tested, and the binding signal was 10000 fluorescence intensity (a.u.). In the case of “CCCATTGAATTAATTTCGGCGTACATACTGGTGCCTTTTCCGGAGTCACCTAGTGCAG”, the binding signal is reported as 5780 fluorescence intensity (a.u.). With “CTAATTAATCTATAATTAGAGAATATTTACTGTAGCATCACGGAGTCACCTAGTGCAG” the binding signal was 22400 fluorescence intensity (a.u.). For “GATGTGACTGAAAAGTTGTATGTGTATGACAGGTTGATGTCGGAGTCACCTAGTGCAG”, the binding signal was 8260 fluorescence intensity (a.u.). For “AGGTAATTTAGTGGAATCCGAGCTATCTTCTAGGAGGTTTCGGAGTCACCTAGTGCAG”, the binding signal was 7360 fluorescence intensity (a.u.). With “AATCTCCTAATTATGTATTGCCCAAATCCATTTATTTTCCCGGAGTCACCTAGTGCAG” the binding signal was 7170 fluorescence intensity (a.u.). With “ACAATCATAGCAGAATCAAATCAATCAACATCATTATATTCGGAGTCACCTAGTGCAG” the binding signal was 4800 fluorescence intensity (a.u.). In the case of “CCCAGTAATTGGCATGCTTTATCAGTAGTTCAGTACTACTCGGAGTCACCTAGTGCAG”, the binding signal is reported as 34000 fluorescence intensity (a.u.). In the case of “TTAAATTAGTGTCTAAACATCCGATGTGACAGGGACTTGTCGGAGTCACCTAGTGCAG”, the binding signal is reported as 29100 fluorescence intensity (a.u.). In the case of “AGAGGAGATTGAGAAGATTGAAAAGATACGTAAAACGAGACGGAGTCACCTAGTGCAG”, the binding signal is reported as 39100 fluorescence intensity (a.u.). With “GATCTATCTCAATCAACCCACGTGGCCTCACCTCGCCGGACGGAGTCACCTAGTGCAG” the binding signal was 6630 fluorescence intensity (a.u.). With “TAAAATTGCCAAATATTGGTAAGCCTAATTTAGGCCTCAACGGAGTCACCTAGTGCAG” the binding signal was 6980 fluorescence intensity (a.u.). In the case of “CCATGTGATTATATGGGCCAACCCTGAGCCGCTGACGTGGCGGAGTCACCTAGTGCAG”, the binding signal is reported as 18100 fluorescence intensity (a.u.). In the case of “CAAACTGATCATAATTCTAAATATTGCTAGTAAGTTAACCCGGAGTCACCTAGTGCAG”, the binding signal is reported as 9380 fluorescence intensity (a.u.). “ATTGCATTGATTTACTGTGCTATTCACATGAACAGTAACCCGGAGTCACCTAGTGCAG” was tested, and the binding signal was 11800 fluorescence intensity (a.u.). For “TAATAAATTATAACAAATGTAGTTACATTTTAACTTCAAACGGAGTCACCTAGTGCAG”, the binding signal was 11300 fluorescence intensity (a.u.). For “CGCCTGAGCTAATGTGATTGCAACGTGAGACACGGACGGACGGAGTCACCTAGTGCAG”, the binding signal was 6470 fluorescence intensity (a.u.). With “GGTGAAATTGATAATTCATCTAACAAGTAGATCACATATTCGGAGTCACCTAGTGCAG” the binding signal was 35000 fluorescence intensity (a.u.). In the case of “AGGACGTCAAAGATTGGAAAATTAACTTCATGGAATGACACGGAGTCACCTAGTGCAG”, the binding signal is reported as 7560 fluorescence intensity (a.u.). In the case of “TTAGTCCATGATTAGCCATAAGTGCTACAGTAAACCACATCGGAGTCACCTAGTGCAG”, the binding signal is reported as 9190 fluorescence intensity (a.u.). With “CTAATTAGCACAGTTGCACACATGTTTTAGCCTTTTGGTCCGGAGTCACCTAGTGCAG” the binding signal was 6930 fluorescence intensity (a.u.).
